# Test results: the antibiotic and cytotoxicity screens of Wong et al. (2023)
# This is one part of the list.
# Assays:
# HSkMC = human skeletal muscle cells; test: cytotoxicity call (relative viability < 0.9); conditions: 10 µM
# HepG2 = test: cytotoxicity call (relative viability < 0.9); conditions: 10 µM
# S. aureus RN4220 = test: growth inhibition call (relative growth <= 0.2); conditions: 50 µM
SMILES,cytotoxicity call (HSkMC),cytotoxicity call (HepG2),growth inhibition call (S. aureus RN4220)
O=C(O)c1cccnc1,inactive,inactive,inactive
Cn1cnc(CCNC(=O)C[C@@H]2CC[C@@H]3[C@H](COC[C@@H](O)CN3C(=O)Nc3ccc(C(F)(F)F)cc3)O2)c1,inactive,inactive,inactive
C[C@@H]1CN([C@H](C)CO)C(=O)c2c(c3ccccc3n2C)-c2ccccc2CO[C@H]1CN(C)C(=O)N[C@H](C)c1ccccc1,inactive,inactive,inactive
C[C@@H]1[C@@H](c2ccccc2)OC(=O)[C@@H]2[C@@H]3C=C[C@]4(O3)[C@H](C(=O)N(Cc3ccccc3)C/C=C\CCC(=O)N1C)N([C@@H](C)CO)C(=O)[C@@H]24,inactive,inactive,inactive
C[C@H]1CCCCO[C@@H](CN(C)C(=O)Nc2ccccc2)[C@@H](C)CN([C@@H](C)CO)C(=O)c2cc(NC(=O)Nc3cccc4ccccc34)ccc2O1,inactive,inactive,inactive
COc1ccc(NC(=O)Nc2ccc3c(c2)CC(=O)N([C@@H](C)CO)C[C@H](C)[C@@H](CN(C)S(=O)(=O)c2c(C)noc2C)O3)cc1,inactive,inactive,inactive
C[C@@H]1CN([C@@H](C)CO)C(=O)CCCn2nncc2CO[C@H]1CN(C)C(=O)Nc1ccnc(N2CCOCC2)c1,inactive,inactive,inactive
C[C@@H]1CCCCO[C@H](CN(C)C(=O)CCC(F)(F)F)[C@@H](C)CN([C@@H](C)CO)C(=O)c2cc(NS(=O)(=O)c3ccccc3)ccc2O1,inactive,inactive,inactive
CC(C)CC#Cc1ccc2c(c1)O[C@H](CN(C)S(=O)(=O)c1ccc(F)cc1)[C@@H](C)CN([C@@H](C)CO)S2(=O)=O,inactive,inactive,inactive
COCC#Cc1cnc2c(c1)C(=O)N([C@H](C)CO)C[C@H](C)[C@@H](CN(C)S(=O)(=O)c1ccccc1)O2,inactive,inactive,inactive
C[C@H]1CCCCO[C@@H](CN(C)CC2CCCCC2)[C@@H](C)CN([C@@H](C)CO)C(=O)c2cc(NS(=O)(=O)c3cccs3)ccc2O1,inactive,inactive,inactive
C[C@@H]1CN([C@H](C)CO)C(=O)CCCn2cc(nn2)CO[C@@H]1CN(C)C(=O)C1CC1,inactive,inactive,inactive
C[C@@H]1CN([C@@H](C)CO)C(=O)c2cc(NS(C)(=O)=O)ccc2O[C@@H]1CN(C)S(=O)(=O)c1ccc(F)cc1,inactive,inactive,inactive
CC(c1cc2ccccc2s1)N(O)C(N)=O (stereo not drawn),inactive,inactive,inactive
C=CC[C@H](CC(=O)N(CCO)Cc1ccccc1)C(=O)N[C@H](COC(=O)[C@@H](CC=C)CC(=O)OC(C)(C)C)Cc1c[nH]c2ccccc12,inactive,inactive,inactive
C[C@@H]1CN([C@H](C)CO)C(=O)Cc2cc(NS(=O)(=O)c3ccc(F)cc3)ccc2O[C@H]1CN(C)Cc1ccc(-c2ccccc2)cc1,active,active,inactive
C[C@H]1CN([C@@H](C)CO)C(=O)CCCn2nncc2CO[C@@H]1CN(C)C(=O)Nc1cccc(Oc2ccccn2)c1,inactive,inactive,inactive
CCN1CCN([C@H]2CC(=O)NC2=O)CC1,inactive,inactive,inactive
C[C@@H]1CCCCO[C@H](CN(C)C(=O)Nc2cccc3ccccc23)[C@H](C)CN([C@@H](C)CO)C(=O)c2cc(NC(=O)CCCN(C)C)ccc2O1,inactive,inactive,inactive
C[C@H](CO)N1C[C@H](C)[C@@H](CN(C)Cc2ccc(-c3ccccc3)cc2)Oc2ccc(NC(=O)CCC(F)(F)F)cc2CC1=O,inactive,inactive,inactive
NC(=S)N[C@H]1CCS(=O)(=O)C1,inactive,inactive,inactive
COCC(=O)N(C)C[C@H]1Oc2cc(C#CC(C)(C)O)ccc2S(=O)(=O)N([C@@H](C)CO)C[C@@H]1C,inactive,inactive,inactive
C[C@H]1CCCCO[C@H](CN(C)S(=O)(=O)c2cn(C)cn2)[C@@H](C)CN([C@@H](C)CO)C(=O)c2cc(N(C)C)ccc2O1,inactive,inactive,inactive
C[C@@H]1CN([C@H](C)CO)C(=O)c2cc(NC(=O)C3CCCCC3)ccc2O[C@H]1CN(C)Cc1ccc(Cl)c(Cl)c1,inactive,inactive,inactive
CCS(=O)(=O)CCn1c([N+](=O)[O-])cnc1C,inactive,inactive,inactive
Cc1ccccc1NC(=O)C(C)(C)C,inactive,inactive,inactive
